# In the supplement of paper PMC4604168 (melanoma cell lines):
# The other results are listed elsewhere or left out. Most values come without repeats; read them as rough.
# Tested on: WM3526
# Assay: cell count relative to DMSO control; melanoma cells; higher = more viable cells
# Settings: library dose: standard library concentration; 72 h
# 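Further: cells treated in 1,536-well plates, then fixed and DAPI-stained, with nuclei counted from automated high-throughput microscope images.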
row,Compound,cell count
1,"CN(c1ncccc1CNc1nc(Nc2ccc3c(c2)CC(=O)N3)ncc1C(F)(F)F)S(C)(=O)=O + Cc1ccc(NC(=O)c2cccc(N(C)C)c2)cc1NC(=O)c1ccc(O)cc1 [ZM336372] (first compound 0.4 µM, partner dose 10 µM)",101%
2,"C=C(c1ccc(C(=O)O)cc1)c1cc2c(cc1C)C(C)(C)CCC2(C)C [Bexarotene] + Nc1ccn([C@@H]2O[C@H](CO)[C@@H](O)C2(F)F)c(=O)n1 [gemcitabine] (first compound 10 µM, partner dose 0.002 µM)",83.6%
3,"CS(=O)(=O)c1ccc(C(=O)Nc2ccc(Cl)c(-c3ccccn3)c2)c(Cl)c1 [vismodegib] + CS(=O)(=O)CCNCc1ccc(-c2ccc3ncnc(Nc4ccc(OCc5cccc(F)c5)c(Cl)c4)c3c2)o1 [lapatinib] (first compound 5 µM, partner dose 4 µM)",63.9%
4,"NC1(c2ccc(-c3nc4ccn5c(=O)[nH]nc5c4cc3-c3ccccc3)cc2)CCC1 + Cc1cc(N2CCOCC2)cc2[nH]c(-c3c(NC[C@@H](O)c4cccc(Cl)c4)cc[nH]c3=O)nc12 [BMS536924] (first compound 2 µM, partner dose 1 µM)",56.4%
5,"C=C(c1ccc(C(=O)O)cc1)c1cc2c(cc1C)C(C)(C)CCC2(C)C [Bexarotene] + Nc1ncn([C@H]2C[C@H](O)[C@@H](CO)O2)c(=O)n1 [decitabine] (first compound 10 µM, partner dose 0.5 µM)",98.5%
6,"NC1(c2ccc(-c3nc4ccn5c(=O)[nH]nc5c4cc3-c3ccccc3)cc2)CCC1 + Cn1c(Nc2ccc(C(F)(F)F)cc2)nc2cc(Oc3ccnc(-c4ncc(C(F)(F)F)[nH]4)c3)ccc21 [CHIR265] (first compound 2 µM, partner dose 0.4 µM)",31.4%
7,"CN(c1ncccc1CNc1nc(Nc2ccc3c(c2)CC(=O)N3)ncc1C(F)(F)F)S(C)(=O)=O + C=CCn1c(=O)c2cnc(Nc3ccc(N4CCN(C)CC4)cc3)nc2n1-c1cccc(C(C)(C)O)n1 [MK1775] (first compound 0.4 µM, partner dose 0.1 µM)",97.3%
8,"CCCS(=O)(=O)Nc1ccc(F)c(C(=O)c2c[nH]c3ncc(Cl)cc23)c1F + COc1cc(Nc2ncc(F)c(Nc3ccc4c(n3)NC(=O)C(C)(C)O4)n2)cc(OC)c1OC [Tamatinib] (first compound 0.4 µM, partner dose 2 µM)",48.1%
9,"NC1(c2ccc(-c3nc4ccn5c(=O)[nH]nc5c4cc3-c3ccccc3)cc2)CCC1 + CN(C)S(=O)(=O)c1ccc2c(c1)/C(=C/c1cc3c([nH]1)CCCC3)C(=O)N2 [SU6656] (first compound 2 µM, partner dose 2 µM)",63%
10,"CS(=O)(=O)c1ccc(C(=O)Nc2ccc(Cl)c(-c3ccccn3)c2)c(Cl)c1 [vismodegib] + NC(=O)Nc1cc(-c2cccc(F)c2)sc1C(=O)N[C@H]1CCCNC1 [AZD7762] (first compound 5 µM, partner dose 0.1 µM)",47.5%
11,"CCCS(=O)(=O)Nc1ccc(F)c(C(=O)c2c[nH]c3ncc(Cl)cc23)c1F + OCCn1cc(-c2cnc3nnn(Cc4ccc5ncccc5c4)c3n2)cn1 [PF04217903] (first compound 0.4 µM, partner dose 5 µM)",55.3%
12,"CS(=O)(=O)c1ccc(C(=O)Nc2ccc(Cl)c(-c3ccccn3)c2)c(Cl)c1 [vismodegib] + CC(=O)c1c(C)c2cnc(Nc3ccc(N4CCNCC4)cn3)nc2n(C2CCCC2)c1=O [palbociclib] (first compound 5 µM, partner dose 0.2 µM)",59.6%
13,"CN(c1ncccc1CNc1nc(Nc2ccc3c(c2)CC(=O)N3)ncc1C(F)(F)F)S(C)(=O)=O + CS(=O)(=O)CCNCc1ccc(-c2ccc3ncnc(Nc4ccc(OCc5cccc(F)c5)c(Cl)c4)c3c2)o1 [lapatinib] (first compound 0.4 µM, partner dose 4 µM)",64.4%
14,"CN(c1ncccc1CNc1nc(Nc2ccc3c(c2)CC(=O)N3)ncc1C(F)(F)F)S(C)(=O)=O + Cn1c(Nc2ccc(C(F)(F)F)cc2)nc2cc(Oc3ccnc(-c4ncc(C(F)(F)F)[nH]4)c3)ccc21 [CHIR265] (first compound 0.4 µM, partner dose 0.4 µM)",39.7%
